Among all 44,000 compounds or so, about 340 (0.77%) were called active. Roughly 5% stayed inconclusive and do not appear here. Calls come from the whole dose curve; as a rule, active = well fitted inhibition curve with a large enough effect; inconclusive = small, poorly fitted or top-dose-only effect; inactive = flat fitted curve, though single readings scatter. The list shows a part of the results.
Test: Acumen qHTS Assay for Inhibitors of the mTORC1 Signaling Pathway in MEF (Tsc2-/-, p53-/-) Cells: Sytravon;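 note: plate controls were DMSO for no effect and rapamycin for full effect; nearly all actives have a fitted effect of over 50% in size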
Settings: phospho-rpS6 immunofluorescence/PI, 24 h; series mostly up to 38.3 µM; activity change, negative = inhibition: at the top concentration
Procedure, shortened: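 Tsc2-/-, p53-/- MEFs (empty-vector stable line) in DMEM + 10% FBS were treated with compounds 24 h at 37 degree Celsius, fixed, and immunostained for phospho-rpS6 (Alexa-488) with propidium iodide counterstain. Laser-scanning cytometry gave % positive cells, normalized against 7.5 nM rapamycin and DMSO.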

Activity change, negative = inhibition, inactive:
COc1cccc(NC(=O)CSc2nc(=O)n(Cc3ccncc3)c3c2CCC3)c1 0.194%, CCOC(=O)N1CCC2(CC1)OC(=O)C(C)=C2C(=O)NCc1cccc(F)c1 0.13%, Cc1cccc(NC(=O)CN2C(=O)c3cccc4cccc2c34)c1C 13.4%, CCCN1CCN(c2ncnc3sc(C(=O)Nc4c(C)cc(C)cc4C)c(C)c23)CC1 10.8%, CCc1ccc(C(=O)c2cn(CC(=O)Nc3ccc(OC)cc3)c3cc4c(cc3c2=O)OCO4)cc1 6.84%, CCC1CN(S(=O)(=O)c2cc(-c3onc(C)c3C)ccc2C)c2cc(Cl)ccc2O1 (centres undefined) -13.1%, NC(=O)C1(N2CCCCC2)CCN(C(=O)Nc2ccc(F)cc2F)CC1 2.99%, Cc1ccc(Cn2ccnc2SCC(=O)Nc2nc3ccccc3s2)cc1 -12.5%, Cc1cc(NC(=O)C2CCN(S(=O)(=O)c3cccc4nsnc34)CC2)ccc1Br 0.499%, NS(=O)(=O)c1ccc(NC(=O)C(=O)Nc2ccc3nc4n(c(=O)c3c2)CCCCC4)cc1 1.67%, Cc1cccc(C(=O)N2c3nc(-c4ccco4)nn3C3(CCCCC3)[C@@H]3CCCC[C@@H]32)c1 -6.55%, Cc1cccc(-n2ncc3c(N4CCCC(C)C4)ncnc32)c1 (centres undefined) 0.566%, CCOc1ccc2nc(N3CCCC(C(=O)Nc4cc(Cl)c(OC)cc4OC)C3)sc2c1 (centres undefined) -4.88%, Cc1c(C(=O)Nc2cccc(-c3nc4ccccc4s3)c2)oc2ccccc12 -5.17%, CCCCCCSc1nnc2c(n1)OC(C)Nc1ccc(Br)cc1-2 (centres undefined) -11.3%, CSc1nn(Cc2cccc(C)c2)c(N)c1S(=O)(=O)c1ccccc1 -9.32%, COc1ccc(CNC(=O)c2ccc(NC(=O)N3CCSc4ccccc43)cc2)cc1 0.207%, Cc1ccccc1Cn1c2ccccc2c2cnn(CC(=O)NC3CCC(C)CC3)c(=O)c21 (centres undefined) -0.38%, COc1cc2c(=O)n(CCC(=O)NCC3CCCO3)c(=O)n(CC(=O)Nc3ccc(C)cc3C)c2cc1OC (centres undefined) -0.757%, COc1cc(NC(=O)C(CC(C)C)NS(=O)(=O)c2ccc3c(c2)CCN3C(C)=O)cc(OC)c1 (centres undefined) -2.72%, CC(C)c1ccc2oc(-c3ccc(NC(=O)c4cccc(Br)c4)cc3)nc2c1 -22.5%, Cc1ccc(NC(=O)CC(C)S(=O)(=O)c2ccc3c(c2)NC(=O)CO3)c(Cl)c1 (centres undefined) -8.35%, O=C(Nc1ccccc1C(F)(F)F)c1ccc2oc(=O)c(S(=O)(=O)c3ccc(F)cc3)cc2c1 -4.81%, O=C(NCCC1=CCCCC1)c1ccc2c(=O)n3nc(Nc4ccccc4)sc3nc2c1 2.08%, COCCCNC(=O)c1cn(CCOC)c(=O)c2c1c1ccccc1n2C -0.087%, Cc1ccccc1CNC(=O)CN1C(=O)CSc2ccc(S(=O)(=O)N(C)C)cc21 9.73%, COc1ccc(-c2noc(CCC(=O)Nc3ccc(C(F)(F)F)cc3)n2)cc1 -8.44%, Cc1ccc(CSc2oc(-c3cccs3)nc2S(=O)(=O)c2ccccc2)cc1 -10.5%, CC(=O)c1ccc(N2CCN(c3ncnc4c3nc3n4CCCC3)CC2)cc1 -0.505%, COc1ccc(CCNC(=O)Cc2c(C)c3c(cc(C)c4c(C)c(C)oc43)oc2=O)cc1 2.33%, Cc1ccc2ncc(C(=O)N3CCN(c4ccccc4F)CC3)c(=O)n2c1 0.0918%, CCOC(=O)N1CCc2c(sc3c2c(=O)n(Cc2ccccc2)c(=O)n3Cc2ccccc2Cl)C1 -3.01%, Cc1c(NC(=O)c2cc(-c3cccc(O)c3)on2)c(=O)n(-c2ccccc2)n1C -9.43%, Cc1ccc(S(=O)(=O)N(CC(=O)NCCc2ccc(Cl)cc2)c2ccccc2C)cc1 1.14%, CCc1ccc(OCC(=O)N(Cc2ccc(C)o2)C2CCS(=O)(=O)C2)cc1 (centres undefined) -7.71%, COc1cccc(NC(=O)C2CCN(c3nnc(C)c4c(C)n(-c5ccccc5)nc34)CC2)c1 -5.52%, CCc1ccccc1NC(=O)N1CCc2c([nH]c3ccccc23)C1c1ccc(C)cc1 (centres undefined) 0.29%, COc1ccc(CCNC(=O)c2cnn(-c3ccc(F)cc3)c2C2CCN(C(=O)OC(C)(C)C)CC2)c(OC)c1 -3.91%, Cc1c(NC(=O)c2cc(=O)c3ccccc3o2)c(=O)n(-c2ccccc2)n1C 4.1%, Cc1coc2c(C)c3oc(=O)c(CC(=O)NCCc4ccc(Cl)cc4)c(C)c3cc12 -2.43%, COc1ccc(NC(=O)C2CCCN(S(=O)(=O)c3ccc4c(c3)oc(=O)n4C)C2)c(OC)c1 (centres undefined) -5.89%, Cc1cccc(CSc2nc(-c3cccs3)ccc2C#N)c1 -12.2%, O=C(COc1ccccc1F)Nc1nnc(SCc2cc(=O)c3ccccc3[nH]2)s1 5.7%, COCCCNC(=O)c1ccc(-n2c(-c3ccccc3)cc3c2CCC(C)C3)cc1 (centres undefined) 8.17%, COc1cccc(N2CCN(C(=O)c3cccn3-c3nnc(N4CCCC4)s3)CC2)c1 6.83%, CCCCOc1ccc(S(=O)(=O)Nc2ccc(-c3ccc(N4CCC(C)CC4)nn3)cc2)cc1 4.16%, COc1ccc(S(=O)(=O)Nc2ccc(-c3cn4ccsc4n3)cc2)cc1C 0%, COc1ccc(CCN2C(=O)c3oc4cc(C)cc(C)c4c(=O)c3C2c2ccccc2F)cc1OC (centres undefined) 1.96%, COc1cccc(-c2nnc(SCC(=O)NC3CCCCC3)o2)c1 -0.286%, CCCn1c(=O)c2sccc2n2c(CCCC(=O)Nc3ccc(Oc4ccc(Cl)cc4)cc3)nnc12 0%, Cc1ccc(NC(=O)c2ccc(CN3C(=O)CCn4nc(C)cc43)cc2)c(Cl)c1 -1.08%, CC(=O)c1ccc(NS(=O)(=O)c2ccc(-c3cc(C)no3)s2)cc1 -5.29%, CCOc1ccc(CCNC(=O)C2CCN(C(=O)c3cc4sccc4n3CC)CC2)cc1OCC 1.69%, CC(=O)c1ccc(NC(=O)C2CCC(CNS(=O)(=O)c3cccs3)CC2)cc1 (centres undefined) -1.23%, Cc1cccc(NC(=O)Cn2c(=O)ccc3cc(S(=O)(=O)N4CCCC4)ccc32)c1C 0.577%, COc1cccc(Cc2nc3ccccc3nc2SCC(=O)NCc2ccc(C)cc2)c1 8.01%, COc1ccc(CCNC(=O)c2ccc3c(c2)nc2n3CCC(C)C2)cc1OC (centres undefined) -19.5%, CCOC(=O)c1noc2nc(C)n(Cc3cccc(C#N)c3)c(=O)c12 1.07%, COc1ccc(N2C(=O)CS(=O)(=O)C23C(=O)N(Cc2ccc(C)cc2)c2ccccc23)cc1Cl (centres undefined) 5.41%, O=C(NCc1ccc(F)cc1)c1ccc2c(c1)nnn2C1CCCC1 0%, CCOc1ccc(NC(=O)N2CCN(Cc3cc(=O)n4nc(-c5ccc(OC)cc5)sc4n3)CC2)cc1 1.76%, Cc1c(NC(=O)c2cc(-c3ccc(Cl)cc3)on2)c(=O)n(-c2ccccc2)n1C -0.113%, CCOC(=O)c1[nH]c(C)c(CCC(=O)NCc2ccc(OC)cc2)c1C -4.92%, Cc1ccccc1-c1nnc(SCC(=O)N(C)C2CCCCC2)o1 -0.986%, CCNC(=O)c1ccc(CSc2nc3ccncc3n2Cc2ccc(F)cc2)cc1 -3.12%, CCN(C(=O)Cn1cnc2onc(-c3ccc(F)cc3)c2c1=O)c1cc(C)ccc1C 7.09%, CCn1c(C(=O)NCc2cc(Br)ccc2OC)cc2oc3ccccc3c21 -0.37%, Cc1ccc(NC(=O)N2CCN(c3cc(-c4noc(C)n4)ccc3C)CC2)c(C)c1 -8.75%, Cc1cccc(CCNC(=O)CN(c2ccc(C(C)C)cc2)S(=O)(=O)c2c(C)nn(C)c2C)c1 6.5%, CC(=O)c1ccc(NC(=O)c2nc(-c3ccc(C)cc3)n3c2CCCCC3)cc1 -1.62%, Cc1ccc(OCC(=O)Nc2nc(-c3ccc(Br)cc3)ns2)cc1C -20.5%, COc1ccc(CNc2nc3ccccc3c3nc(-c4ccccc4)nn23)cc1 -3.21%, Cc1ccccc1OCC(=O)Nc1ccc2nc(SCc3ccccc3)sc2c1 -7.07%, COc1ccc(-c2ccc(NS(=O)(=O)c3cccc(C)c3)cc2)nn1 -14%, COc1ccc(OCC(=O)NC2CC(=O)N(c3ccc4c(c3)OCCO4)C2)cc1 (centres undefined) -2.14%, CCc1ccc(NS(=O)(=O)c2c(C)nc3sc(CC)nn3c2=O)cc1 -25.7%, Cc1ccc(C)c(CN2C(=O)C3(c4ccccc42)N(c2ccc(Cl)cc2)C(=O)CS3(=O)=O)c1 (centres undefined) 3.64%, COc1ccc(CCNC(=O)C2CCN(c3nc4ccccc4nc3C(F)(F)F)CC2)c(OC)c1 2.66%, CC(=O)N1c2ccccc2CC1C(=O)NCc1cccc(Cl)c1 (centres undefined) -15.8%, COc1ccc(-c2cc(C)no2)cc1S(=O)(=O)N1CCN(c2ccccc2F)CC1 0.974%, COc1ccc(CCNc2nc3c(-c4cccc(F)c4)nnn3c3ccccc23)cc1OC 2.87%, Cc1cccc(NC(=O)CSc2nc(-c3ccccc3Cl)nc3c2Cc2c(CO)cnc(C)c2O3)c1C -1.31%, CC1CCN(c2nc3c(S(=O)(=O)c4ccc(Cl)cc4)nnn3c3ccsc23)CC1 -7.88%, COCCNC(=O)C1CCN(c2nc3ccccc3nc2C(F)(F)F)CC1 7.25%, CCc1ccccc1NC(=O)c1ccc(CN2C(=O)CCn3nc(C)cc32)cc1 -1.39%, Cc1ccccc1NC(=O)CSc1cn(CC(=O)N(C(C)C)C(C)C)c2ccccc12 -11.2%, COc1cc2c(cc1OC)n(Cc1ccc([N+](=O)[O-])cc1)c(=O)n1nc(-c3ccccc3)nc21 -0.0379%, COc1cc2c(cc1OC)C(COc1ccc3c(C)cc(=O)oc3c1)N(C(=O)c1ccccc1F)CC2 (centres undefined) -15%, CCOc1ccc(NC(=O)CSc2nc3c([nH]c4ccccc43)c(=O)n2-c2cc(C)cc(C)c2)cc1 -0.328%, O=C(COc1cccc(Cl)c1)N1CCC(c2nc3ccccc3o2)CC1 -0.298%, Cc1cccc(N2CCN(C(=O)c3cnc4c(C)cccn4c3=O)CC2C)c1 (centres undefined) -0.323%, O=C(NCc1ccccc1Cl)C1CCCN(C(=O)c2cnn(-c3ccc(F)cc3)c2-n2cccc2)C1 (centres undefined) -0.341%, Cc1nc2c(-c3ccccc3)c(C)nn2c(C)c1CCC(=O)NCCc1ccccc1 -7.94%, CC(C)c1ccc(NC(=O)N2CCN(c3ccc(Cl)c(Cl)c3)CC2)cc1 -18%

— PubChem BioAssay AID493208 (National Center for Advancing Translational Sciences (NCATS), 2011)
